Measurements taken from the supplement of paper PMC10338343.
± gives the standard deviation. Only a part is listed here, and it is no random draw.

Test system: MIWI (PIWIL1) piRISC loaded with L1MC piRNA (30 nt)
Assay: pre-steady-state target cleavage rate (min^-1); MIWI and MILI are mouse PIWI proteins and EfPiwi is from a freshwater sponge; tags in brackets are library labels; higher = faster piRNA-guided slicing of the target
Conditions: guide: L1MC piRNA 5'p-UAACUAAAUACUAUGCAAGCUGUAGGUCCU
Outline: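 Cleave-'n-Seq reactions paired 0.1 nM transcribed, DNA-blocked target RNA library with 1 nM active affinity-purified piRISC holding one synthetic guide, plus or minus 500 nM GTSF1 partner protein, in HEPES–potassium acetate buffer at 33 °C for 0–8 or 0–960 min. After sequencing of uncleaved targets and normalisation to depth and weakly complementary targets, the pre-steady-state cleavage rate was taken from a burst-and-steady-state fit. Three trials were pooled, and k3 was capped at 0.0001 min^-1.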

[1] = auxiliary factor: 500 nM mouse GTSF1
[2] = auxiliary factor: none (no GTSF1)

Row | Sequence | pre-steady-state target cleavage rate [1] | pre-steady-state target cleavage rate [2]
1 | UCCUGCUACAGGUUGCAUAGUAUUUAGUAA | 0.858 ± 0.083 | 0.00875 ± 0.0025
2 | ACCACCUACAGCUUGCAUAGUAUUUAGUAA | 0.663 ± 0.054 | 0.0445 ± 0.011
3 | UCCUGGAACAGCUUGCUUAGUAUUUAGUAA | 0.604 ± 0.048 | 0.0119 ± 0.0031
4 | UCGACCUACAGCUUCGCAUAGUAUUUAGUUA | 1.33 ± 0.07 | 0.0168 ± 0.004
5 | UCCUGCUACAGCUAGCAUACUAUUUAGUUA | 0.529 ± 0.038 | 0.017 ± 0.0038
6 | UCCUGCUACAGCUUGCAUUGUAAUUAGUUA | 0.48 ± 0.032 | 0.00988 ± 0.0039
7 | UCCUGGAACAGCAUGCAUAGUAUUUACUUA | 0.446 ± 0.045 | 0.0279 ± 0.0094
8 | UCGACCUACACCUUGCAUAGUAUUUAGUAA | 0.769 ± 0.069 | 0.0378 ± 0.0082
9 | UCCACCUACAGCUUGCAAAGUAUUUAGAAA | 0.274 ± 0.043 | 0.00359 ± 0.0024
10 | UCGACCUACACCAUGCAUAGUAUUUAGUUA | 0.854 ± 0.041 | 0.0165 ± 0.0031
11 | UCCUCCUUCAGCUUGCAUAGUAAUUAGUUA | 0.688 ± 0.038 | 0.0201 ± 0.005
12 | UCCUGGAACAGCCUUGCAUAGUAUUUAGUUA | 0.851 ± 0.051 | 0.0663 ± 0.012
13 | UCCUGGAACUGCUUGGAUAGUAUUUAGUUA | 0.975 ± 0.05 | 0.0313 ± 0.0076
14 | UGGACCUACAGGUUGCAUAGUAUUUAGAAA | 0.357 ± 0.039 | 0.00592 ± 0.0019
15 | UCCUGGAUCAGCUUGCAUAGUAUUAUAGUUA | 0.882 ± 0.045 | 0.0161 ± 0.0042
16 | UCCUCCAACAGCUUGCAUAGUAAUUAGUUA | 0.761 ± 0.034 | 0.0252 ± 0.0062
17 | UGCUCCUACAGCUUGCAUAGUAUUUACAAA | 0.331 ± 0.047 | 0.00421 ± 0.0024
18 | UCCACGUACAGCAUGCAUAGUAUUUAGUUA | 1.26 ± 0.047 | 0.0275 ± 0.0042
19 | UCCUGGAUGAGCUUGCAUAGUAAUUAGAUA | 0.136 ± 0.034 | 0.00679 ± 0.0036
20 | UCGACCUACAGCUUGCAAAGUAUUUUCAAA | 0.194 ± 0.026 | 0.00273 ± 0.0026
